Consider 84 compounds from publication PMC4336329 (PLoS ONE, 2015).

The campaign covered roughly 310,000 compounds. About 14,000 (4.5%) showed an effect of 50% or more. Effects have a minus sign here. The list shows a part of the results.
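Also: peak tail current of the secondary pulse compared with the same well before compound.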

Chain of human ether-à-go-go-related gene (hERG) potassium channel (Q12809 whole entry, looked up): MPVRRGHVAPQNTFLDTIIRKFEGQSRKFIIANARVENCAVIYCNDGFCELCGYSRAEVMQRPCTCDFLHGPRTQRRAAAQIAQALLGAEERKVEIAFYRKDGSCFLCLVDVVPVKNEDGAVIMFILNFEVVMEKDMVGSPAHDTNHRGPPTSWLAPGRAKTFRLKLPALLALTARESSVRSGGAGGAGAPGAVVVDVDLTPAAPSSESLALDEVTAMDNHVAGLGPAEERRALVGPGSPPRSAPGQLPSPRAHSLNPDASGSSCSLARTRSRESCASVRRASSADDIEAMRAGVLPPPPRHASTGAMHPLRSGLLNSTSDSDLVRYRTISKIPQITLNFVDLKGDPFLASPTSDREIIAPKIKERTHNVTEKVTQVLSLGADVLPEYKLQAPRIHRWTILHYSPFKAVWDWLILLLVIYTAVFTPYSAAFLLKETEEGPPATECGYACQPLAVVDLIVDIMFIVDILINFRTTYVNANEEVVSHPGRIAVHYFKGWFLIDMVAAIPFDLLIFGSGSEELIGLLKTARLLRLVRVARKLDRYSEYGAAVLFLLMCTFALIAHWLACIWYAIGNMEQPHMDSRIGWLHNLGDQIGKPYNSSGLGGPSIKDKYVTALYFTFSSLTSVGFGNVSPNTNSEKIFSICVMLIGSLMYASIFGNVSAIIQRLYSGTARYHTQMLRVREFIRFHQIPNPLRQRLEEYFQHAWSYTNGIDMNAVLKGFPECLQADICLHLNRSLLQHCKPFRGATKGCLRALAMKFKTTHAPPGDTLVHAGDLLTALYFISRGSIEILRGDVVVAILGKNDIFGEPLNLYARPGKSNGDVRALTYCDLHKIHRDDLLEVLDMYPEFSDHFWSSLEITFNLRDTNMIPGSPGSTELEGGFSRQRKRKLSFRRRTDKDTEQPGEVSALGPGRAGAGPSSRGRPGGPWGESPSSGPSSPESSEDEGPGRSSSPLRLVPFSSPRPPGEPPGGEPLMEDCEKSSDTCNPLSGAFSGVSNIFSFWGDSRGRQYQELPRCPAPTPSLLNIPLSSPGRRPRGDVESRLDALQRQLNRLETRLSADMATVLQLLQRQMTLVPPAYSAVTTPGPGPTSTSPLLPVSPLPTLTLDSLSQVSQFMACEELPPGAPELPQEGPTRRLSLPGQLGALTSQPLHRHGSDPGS

The assay concerns the target human ether-à-go-go-related gene (hERG) potassium channel (human, UniProt Q12809). Nature of the assay: primary screen, population patch clamp on CHO cells stably expressing hERG.
With `Cc1cc(C)c(C)c(S(=O)(=O)NCc2ccc(C(=O)N3CCCC3)cc2)c1C`, the “hERG current change (%, negative = inhibition) at 10uM” value worked out at 8.62%.

Regarding `CNc1nc2cccnc2s1`, the “hERG current change (%, negative = inhibition) at 10uM” value is listed as 8.71%.

On to `COCCN(C(=O)CC(C)(C)C)c1nnc(-c2cccnc2)s1`, for which the “hERG current change (%, negative = inhibition) at 10uM” value is reported as -7.21%.

With `COC(=O)c1ccc(N2CCc3ccccc32)c([N+](=O)[O-])c1`, the “hERG current change (%, negative = inhibition) at 10uM” value is listed as 10.5%. The result for `C[C@@H]1C(=O)O[C@@H]2CC34[C@H]5C[C@@H](C(C)(C)C)C36[C@H](OC(=O)[C@@H]6O)OC4(C(=O)O5)[C@@]12O` (stereo partly drawn) reads 15.2%; that for `Nc1nc(-c2ccccc2)cc(-c2ccccc2O)n1`, 0.93%; that for `O=C1SCC(c2ccc(Cl)cc2Cl)=NN1Cc1nnc(-c2ccccc2)o1`, 1.48%. The result for `CCOc1ccc(OCC)c(NC(=O)C2CCN(c3ncccn3)CC2)c1` reads -30%; that for `CS(=O)(=O)N(CC(=O)N1CCOCC1)c1cc(C(F)(F)F)ccc1Cl`, 13.6%; that for `O=C(CSCc1ccc(Cl)cc1)NN=C1CCCC1`, -13.6%. As to `O=C(COc1coc(CN2CCN(c3ccccc3)CC2)cc1=O)NCC1CCCO1` (stereo not drawn), the “hERG current change (%, negative = inhibition) at 10uM” value is 10.7%. The result for `Cc1cc2cc(CN(Cc3cccs3)Cc3nnnn3CC3CCCO3)c(=O)[nH]c2cc1C` (stereo not drawn) reads -14.8%. The result for `CCCc1cc(=O)oc2c(C)c(OCC(=O)N3CCC(C(=O)O)(c4ccccc4)CC3)ccc12` reads -0.856%; that for `Cc1cc(NC(=O)Nc2cc(Cl)sc2Cl)no1`, 23.9%. As for `CC(C)NC(=O)COC(=O)c1ccccc1Oc1ccccc1`, the “hERG current change (%, negative = inhibition) at 10uM” value is -15.9%.

Regarding `CCOc1ccc(C(C(=O)Nc2ccc(F)cc2)N(C(=O)Cn2nnc3ccccc32)C2CC2)cc1` (stereo not drawn), the “hERG current change (%, negative = inhibition) at 10uM” value was -50.3%. The result for `CC(/C=C/c1ccccc1)=N\NC(=O)CSc1ccccn1` reads -29.1%.

In the case of `Cc1ccccc1CN1CCN(CC(=O)NCc2ccco2)C1=O`, the “hERG current change (%, negative = inhibition) at 10uM” value amounted to 10.8%. The result for `N#CCCN1CCN(C(=S)c2ccc(-c3cc(Cl)ccc3Cl)o2)CC1` reads -12.3%; that for `CCC1CCc2sc(C(=O)NCC(c3ccccc3OC)N3CCCC3)cc2C1` (stereo not drawn), -63.6%. The result for `O=C(CCn1c(=S)oc2ccccc21)N1CCN(c2ccc(F)cc2)CC1` reads -25.3%. The result for `Cc1ccccc1Cn1cc(CCC(=O)N2CCOCC2)c2ccccc21` reads -17.2%; that for `O=C(C1CCN(C2CCN(Cc3ccc4cc(F)ccc4n3)CC2)CC1)N1CCCC1`, -77.3%. For the compound `COc1cccc(OCC(O)CN(CCO)Cc2ccccc2)c1.Cl` (stereo not drawn), the “hERG current change (%, negative = inhibition) at 10uM” value is recorded as -13.4%. The result for `COC(=O)c1ccc(CNC(=O)COC(=O)c2cc(Cl)nc(Cl)c2)cc1` reads 8.69%. In the case of `COC(=O)C1(C)NC(c2ccc(C)cc2)C2C(=O)N(c3ccc(F)cc3)C(=O)C21` (stereo not drawn), the “hERG current change (%, negative = inhibition) at 10uM” value was -2.85%.

As to `Clc1ccc2oc(-c3cccnc3)nc2c1`, the “hERG current change (%, negative = inhibition) at 10uM” value was -14.9%. Turning to `Cc1ccc(/C=N/NC(=O)c2nnn(-c3nonc3N)c2CN(C)C2CCCCC2)cc1`, the “hERG current change (%, negative = inhibition) at 10uM” value was 3.23%. The result for `Cc1occc1-c1nnc(SCC(=O)NCCc2ccccc2)o1` reads -11.5%; that for `COC(=O)Nc1c(-c2ccccc2)nc2ccc(Cl)cn12`, 5.95%. The result for `O=C(Cc1ccsc1)NCc1ccccc1F` reads 17.1%; that for `COc1ccc(C(=O)Nc2ccc3[nH]c(-c4cccc(OC)c4)cc(=O)c3c2)cc1`, 2.65%; that for `CC1(C)CC(=O)C2=C(C1)OC(N)=C(C#N)C21CCN(C(=O)OCc2ccccc2)CC1`, -2.49%.

As to `Cn1c(N2CCC(C(N)=O)CC2)nc2c1c(=O)n(Cc1ccc(Br)cc1)c(=O)n2C`, the “hERG current change (%, negative = inhibition) at 10uM” value is -57.3%. The result for `Cc1cc(C)c(OCCOCCN(C)C)c(Br)c1.O=C(O)C(=O)O` reads -32.2%. The result for `O=C(c1sc2ccccc2c1Cl)N1CCN(c2ccccc2F)CC1` reads -1.51%; that for `COc1ccc(N(CC(=O)NC2CCCC2)C(=O)CCC(=O)Nc2nc(C)cs2)cc1OC`, -42%. Turning to `CCCCn1c(Cc2ccccc2)n[nH]c1=S`, the “hERG current change (%, negative = inhibition) at 10uM” value was 7.27%.

`Cc1ccc(S(=O)(=O)N2CCN(c3ccccc3)CC2)c(C)c1`: the “hERG current change (%, negative = inhibition) at 10uM” value is 12.9%.

With `Cc1ccc(-n2nc3c(N4CCC(C(=O)NCc5ccccc5C)CC4)nnc(C)c3c2C)cc1`, the “hERG current change (%, negative = inhibition) at 10uM” value is -15.6%. `CCOC(=O)C1(Cc2ccc(OC)cc2)CCN(C(=O)CCc2cnccn2)CC1`: the “hERG current change (%, negative = inhibition) at 10uM” value is given as -7.37%. The result for `COc1cccc(OC)c1C(=O)NC(=S)Nc1ccc2c(c1)OCCO2` reads 13.7%; that for `CCCC(=O)Nc1sc2c(c1C(=O)OCC)CC(C)(C)OC2`, -0.959%. The result for `O=C(NC(=S)Nc1nc2ccccc2s1)c1cccs1` reads 17.5%; that for `C=C(C=O)CC1CC(O)[C@]2(C)OC3C[C@@H]4OC5C[C@]6(C)O[C@]7(C)CCC8OC9C[C@]%10(C)OC(/C(C)=C\CO)C(O)CC%10OC9CC(C)C8OC7CC6O[C@]5(C)C/C=C\C4OC3CC2O1` (stereo partly drawn), 5.79%. For `CCN(CC)S(=O)(=O)c1ccc(/C=C/C(=O)Nc2ccc(F)cc2F)cc1`, the “hERG current change (%, negative = inhibition) at 10uM” value was -2.24%. Consider `COC1Cc2ccccc2N(C(=O)N2CCN(CCO)CC2)c2ccccc21.Cl` (stereo not drawn), for which the “hERG current change (%, negative = inhibition) at 10uM” value was -16.4%. The result for `O=C(COC(=O)CNC(=O)c1cccc([N+](=O)[O-])c1)Nc1cccc(S(=O)(=O)N2CCCCC2)c1` reads -30.8%; that for `O=C(O)c1ccc(NC(=O)c2cn(-c3ccccc3)nc2-c2ccc(Cl)cc2)cc1`, 27.6%; that for `O=C(Nc1ccc(-c2nc3ncccc3o2)cc1)c1ccc(Br)o1`, 2.5%. The result for `CCN1CCCC(NC(=O)c2scc3c2CCCC3)C1` (stereo not drawn) reads 5.25%; that for `CCn1cc(C(=O)NCc2ccccc2OC)c(=O)c2ccc(C)nc21`, 17.6%. The result for `CCOc1ccc(NC(=O)c2cccc(-n3cnnn3)c2)cc1` reads 11.2%; that for `Cc1ccc(NC(=O)C[n+]2cc(-c3ccc(C)cc3)n3c2CCC3)cc1.[Cl-]`, -70%; that for `Cc1ccc2oc(=O)cc(CN3CC(C)OC(C)C3)c2c1` (stereo not drawn), 15.3%. In the case of `O=C1N(c2ccccc2C(F)(F)F)O[C@@]1(c1ccccc1)C1CCCCC1`, the “hERG current change (%, negative = inhibition) at 10uM” value is on record as 4.29%. The result for `O=c1cc(C(F)(F)F)[nH]c2c(OC(F)(F)F)cccc12` reads 3.02%. The result for `O=C(N1CCOCC1)N1CCN(S(=O)(=O)c2ccc(Cl)cc2)CC1` reads -2.23%; that for `Cc1ccc(OCC(O)CNS(=O)(=O)c2ccccc2C(=O)N2CCCCC2)cc1` (stereo not drawn), -13.9%; that for `O=C(CSc1ncnc2c1oc1ccccc12)Nc1ccc2c(c1)OCCO2`, 1.27%.

As to `CCOC(=O)C1CCC(CN(Cc2ccccc2C)S(=O)(=O)c2ccc([N+](=O)[O-])cc2)CC1` (stereo not drawn), the “hERG current change (%, negative = inhibition) at 10uM” value was 16.8%. For `Cn1c(COc2ccc([N+](=O)[O-])cc2)nnc1SCC(N)=O`, the “hERG current change (%, negative = inhibition) at 10uM” value amounted to 1.54%. For the compound `COc1ccc(CN2CCC(=O)N([C@H](CO)CC(C)C)CC2)cc1`, the “hERG current change (%, negative = inhibition) at 10uM” value is -2.62%.

On to `CCn1cc(C(=O)NCC2COc3ccccc3O2)c2cc(OC)c(OC)cc2c1=O` (stereo not drawn), for which the “hERG current change (%, negative = inhibition) at 10uM” value is reported as -1.71%. The result for `O=C(Nc1cccnc1)C1CCCN1S(=O)(=O)c1ccc(Cl)c(Cl)c1` (stereo not drawn) reads -49.3%; that for `COc1ccc(C(=O)/C=C/Nc2ccc(S(=O)(=O)Nc3cc(OC)nc(OC)n3)cc2)c(OC)c1`, 19.4%. Consider `CC(=O)CC1(O)C(=O)N(Cc2ccccc2)c2ccccc21` (stereo not drawn), for which the “hERG current change (%, negative = inhibition) at 10uM” value was -1.7%.

In the case of `COc1ccccc1CNC(=O)COc1cccnc1[N+](=O)[O-]`, the “hERG current change (%, negative = inhibition) at 10uM” value is -43.6%. The result for `CC1(C)NC(C(=O)O)Cc2c1[nH]c1ccccc21` (stereo not drawn) reads 3.65%; that for `COc1cccc(-c2nn3c(-c4cccc(C)c4)nnc3s2)c1`, 17.5%. The result for `Cn1cnnc1SCC(=O)NC1CCCN(Cc2ccccc2F)C1` (stereo not drawn) reads 19.7%; that for `O=C(C1CCCN(S(=O)(=O)c2ccccc2)C1)N1CCN(c2ccccc2)CC1` (stereo not drawn), -54.8%; that for `COc1ccc(CNC(=O)Cn2nc(Cc3cccnc3)c3ccccc3c2=O)cc1`, -43.3%. The result for `Cc1ccnc(NC(=O)c2cnc(Cl)c(Cl)c2)c1` reads 22.2%; that for `Cc1c(Nc2cc(N3CCOCC3)c3nonc3c2[N+](=O)[O-])c(=O)n(-c2ccccc2)n1C`, 14.8%.

As for `Cc1cc(NS(=O)(=O)c2ccc(NC(=O)CSc3nc4ncccc4[nH]3)cc2)nc(C)n1`, the “hERG current change (%, negative = inhibition) at 10uM” value is reported as 9.89%. The result for `Cc1ccc(CNC(=O)C(OC(=O)c2ccco2)C(C)C)cc1` (stereo not drawn) reads -12.6%. Regarding `O=C(/C=C/c1ccccc1)OCCCCN=C1NS(=O)(=O)c2ccccc21`, the “hERG current change (%, negative = inhibition) at 10uM” value is 5.03%. The result for `O=C(N/N=C1\CC2CC=CC12)c1ccc(COc2ccccc2)cc1` (stereo not drawn) reads -6.88%; that for `CC(=O)N1CCc2c(sc(NC(=O)CS(=O)(=O)c3ccc(F)cc3)c2C(N)=O)C1`, 15.7%.

As for `Cc1ccc(N)cc1-n1c(C)ccc1C`, the “hERG current change (%, negative = inhibition) at 10uM” value was determined as 0.787%. The result for `CC(=O)N1CCc2cc(S(=O)(=O)CCC(=O)NCCc3ccc(C)cc3)ccc21` reads -1.9%; that for `Cc1ccc(C)c(N2C(=O)C3C4C=CC(CC4)C3C2=O)c1` (stereo not drawn), 11.5%. In the case of `COc1ccc(CNc2nc(C)cc(C)c2C#N)cc1`, the “hERG current change (%, negative = inhibition) at 10uM” value was determined as 17%.
